In paper PMC12820563, “FoxP3 forms a head-to-head dimer in vivo and stabilizes its multimerization on adjacent microsatellites” one finds binding signal data, which are given here for 31 sequences.

Some of the results follow.

For this assay, the target named is T1, MBP-FoxP1dN (Mus musculus, UniProt P58462 326-579).
T1 sequence: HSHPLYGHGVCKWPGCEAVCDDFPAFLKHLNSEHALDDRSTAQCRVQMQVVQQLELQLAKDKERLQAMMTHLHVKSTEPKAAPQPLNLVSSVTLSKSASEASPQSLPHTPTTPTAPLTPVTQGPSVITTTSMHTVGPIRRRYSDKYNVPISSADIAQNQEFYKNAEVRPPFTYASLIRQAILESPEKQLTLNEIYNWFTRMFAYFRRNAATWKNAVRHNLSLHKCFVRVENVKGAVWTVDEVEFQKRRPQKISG
Description: PD-seq (MBP pull-down with sequencing); 20 mM Tris-HCl pH 7.5, 100 mM NaCl, 1.5 mM MgCl2, 0.4 uM protein, 0.1 uM dsDNA library, 30 min, room temperature, amylose pull-down; high values mean tight binding. Particulars: protein: recombinant; tags: His6-MBP; chain copies: 2; dsDNA, one strand shown. A digest of the protocol:
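His6-MBP-tagged mouse FoxP3 or FoxP1 fragment lacking the N-terminus, expressed in E. coli, was mixed at 0.4 µM with 0.1 µM Klenow-filled double-stranded degenerate DNA library. Incubation was 30 min at room temperature in Tris pH 7.5 buffer with NaCl and MgCl2. Complexes were caught on amylose resin and washed three times; DNA was released with proteinase K, PCR-barcoded and Illumina-sequenced. Binding is reads-per-million enrichment, pull-down over input, with replicates pooled.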
Regarding “GATGATTGTTCTCCCAGCTGATGAATTCCCCGAGTCGAGTAAACAAATTTTCCTAATCTTTCTGTTCAAGCGCCATCTAC”, the binding signal was 0.703 RPM ratio (pull-down/input).

Take “GATGATTGTTCTCCCAGCTGATGAATTATTTCAATCGAGTAAACAAATTTTCCTAATCTTTCTGTTCAAGCGCCATCTAC”: the binding signal was 1.11 RPM ratio (pull-down/input).

Take “GATGATTGTTCTCCCAGCTGATGAATTGTACATGTCGAGTAAACAAATTTTCCTAATCTTTCTGTTCAAGCGCCATCTAC”: the binding signal is 1.02 RPM ratio (pull-down/input).

In the case of “GATGATTGTTCTCCCAGCTGATGAATTTGCAAAATCGAGTAAACAAATTTTCCTAATCTTTCTGTTCAAGCGCCATCTAC”, the binding signal is 1.13 RPM ratio (pull-down/input).

For “GATGATTGTTCTCCCAGCTGATGAATTGCGTTGCTCGAGTAAACAAATTTTCCTAATCTTTCTGTTCAAGCGCCATCTAC”, the binding signal is 1.07 RPM ratio (pull-down/input).

Take “GATGATTGTTCTCCCAGCTGATGAATTGTTTGAGTCGAGTAAACAAATTTTCCTAATCTTTCTGTTCAAGCGCCATCTAC”: the binding signal was 1.25 RPM ratio (pull-down/input).

On to “GATGATTGTTCTCCCAGCTGATGAATTCGACTACTCGAGTAAACAAATTTTCCTAATCTTTCTGTTCAAGCGCCATCTAC”, for which the binding signal is 0.808 RPM ratio (pull-down/input).

As to “GATGATTGTTCTCCCAGCTGATGAATTACCGACTTCGAGTAAACAAATTTTCCTAATCTTTCTGTTCAAGCGCCATCTAC”, the binding signal is 0.948 RPM ratio (pull-down/input).

Consider “GATGATTGTTCTCCCAGCTGATGAATTTGGGAGATCGAGTAAACAAATTTTCCTAATCTTTCTGTTCAAGCGCCATCTAC”, for which the binding signal was 0.793 RPM ratio (pull-down/input).

On to “GATGATTGTTCTCCCAGCTGATGAATTTACACCTTCGAGTAAACAAATTTTCCTAATCTTTCTGTTCAAGCGCCATCTAC”, for which the binding signal was 1.33 RPM ratio (pull-down/input).

As to “GATGATTGTTCTCCCAGCTGATGAATTCCCTCTTTCGAGTAAACAAATTTTCCTAATCTTTCTGTTCAAGCGCCATCTAC”, the binding signal was 0.822 RPM ratio (pull-down/input).

With “GATGATTGTTCTCCCAGCTGATGAATTTATTGATTCGAGTAAACAAATTTTCCTAATCTTTCTGTTCAAGCGCCATCTAC”, the binding signal was 1.86 RPM ratio (pull-down/input).

For the sequence “GATGATTGTTCTCCCAGCTGATGAATTTCTTGCCTCGAGTAAACAAATTTTCCTAATCTTTCTGTTCAAGCGCCATCTAC”, the binding signal is 0.862 RPM ratio (pull-down/input).

As for “GATGATTGTTCTCCCAGCTGATGAATTATCACAGTCGAGTAAACAAATTTTCCTAATCTTTCTGTTCAAGCGCCATCTAC”, the binding signal was 0.984 RPM ratio (pull-down/input).

“GATGATTGTTCTCCCAGCTGATGAATTCGTCTAATCGAGTAAACAAATTTTCCTAATCTTTCTGTTCAAGCGCCATCTAC”: the binding signal was 0.982 RPM ratio (pull-down/input).

Take “GATGATTGTTCTCCCAGCTGATGAATTACGTAGGTCGAGTAAACAAATTTTCCTAATCTTTCTGTTCAAGCGCCATCTAC”: the binding signal was 0.883 RPM ratio (pull-down/input).

Regarding “GATGATTGTTCTCCCAGCTGATGAATTGGTCACATCGAGTAAACAAATTTTCCTAATCTTTCTGTTCAAGCGCCATCTAC”, the binding signal was 1.12 RPM ratio (pull-down/input).

For the sequence “GATGATTGTTCTCCCAGCTGATGAATTCCACCAGTCGAGTAAACAAATTTTCCTAATCTTTCTGTTCAAGCGCCATCTAC”, the binding signal was 0.757 RPM ratio (pull-down/input).

Consider “GATGATTGTTCTCCCAGCTGATGAATTGCTCGTCTCGAGTAAACAAATTTTCCTAATCTTTCTGTTCAAGCGCCATCTAC”, for which the binding signal was 0.898 RPM ratio (pull-down/input).

For “GATGATTGTTCTCCCAGCTGATGAATTAGGTTGGTCGAGTAAACAAATTTTCCTAATCTTTCTGTTCAAGCGCCATCTAC”, the binding signal is 0.907 RPM ratio (pull-down/input).

Regarding “GATGATTGTTCTCCCAGCTGATGAATTCAAACACTCGAGTAAACAAATTTTCCTAATCTTTCTGTTCAAGCGCCATCTAC”, the binding signal is 1.2 RPM ratio (pull-down/input).

As for “GATGATTGTTCTCCCAGCTGATGAATTGCGGGAGTCGAGTAAACAAATTTTCCTAATCTTTCTGTTCAAGCGCCATCTAC”, the binding signal is 0.927 RPM ratio (pull-down/input).

In the case of “GATGATTGTTCTCCCAGCTGATGAATTCCAGTTATCGAGTAAACAAATTTTCCTAATCTTTCTGTTCAAGCGCCATCTAC”, the binding signal was 0.982 RPM ratio (pull-down/input).

“GATGATTGTTCTCCCAGCTGATGAATTAGCAATGTCGAGTAAACAAATTTTCCTAATCTTTCTGTTCAAGCGCCATCTAC”: the binding signal is 0.985 RPM ratio (pull-down/input).

As for “GATGATTGTTCTCCCAGCTGATGAATTCCAACTCTCGAGTAAACAAATTTTCCTAATCTTTCTGTTCAAGCGCCATCTAC”, the binding signal was 0.814 RPM ratio (pull-down/input).

Turning to “GATGATTGTTCTCCCAGCTGATGAATTCTCGAAGTCGAGTAAACAAATTTTCCTAATCTTTCTGTTCAAGCGCCATCTAC”, the binding signal is 0.777 RPM ratio (pull-down/input).

For “GATGATTGTTCTCCCAGCTGATGAATTGGTCAAATCGAGTAAACAAATTTTCCTAATCTTTCTGTTCAAGCGCCATCTAC”, the binding signal was 1.06 RPM ratio (pull-down/input).

For “GATGATTGTTCTCCCAGCTGATGAATTGGCAGTGTCGAGTAAACAAATTTTCCTAATCTTTCTGTTCAAGCGCCATCTAC”, the binding signal is 0.878 RPM ratio (pull-down/input).

As for “GATGATTGTTCTCCCAGCTGATGAATTTCTCAGATCGAGTAAACAAATTTTCCTAATCTTTCTGTTCAAGCGCCATCTAC”, the binding signal is 0.8 RPM ratio (pull-down/input).

Take “GATGATTGTTCTCCCAGCTGATGAATTACTGTGATCGAGTAAACAAATTTTCCTAATCTTTCTGTTCAAGCGCCATCTAC”: the binding signal was 1.11 RPM ratio (pull-down/input).

On to “GATGATTGTTCTCCCAGCTGATGAATTTCATTGCTCGAGTAAACAAATTTTCCTAATCTTTCTGTTCAAGCGCCATCTAC”, for which the binding signal was 0.797 RPM ratio (pull-down/input).
